Columns and labels:
[1] = tested on: HCC1954-IFIT1 reporter cells; experiment: HCC cell assay, IFIT1 promoter reporter in TROP2-expressing cells; type: cell-based, human; settings: 24 h stimulation, FIG. 11
Text: By using the human breast cancer cell line HCC1954 (CRL-2338) cells purchased from the American Type Culture Collection as a strain stably expressing high levels of TROP2 and STING, HCC1954-IFIT1 reporter cells were generated by stably expressing the IFIT1 promoter reporter gene. Specifically, the purchased human IFIT1 (ISG-56) promoter reporter plasmid (GeneCopoeia, HPRM40290-PG04) was transfected into HCC1954 cells using FuGene HD (Promega). The cells were subcultured in medium containing 1.0 g/mL puromycin (Life Technologies) to generate stable expression lines, followed by cloning to obtain a cell line for evaluation. Then, HCC1954-IFIT1 reporter cells suspended in assay buffer (RPMI 1640 medium containing 10% bovine serum albumin) were dispensed at 90 μL/well (2.5×10^4 cells/well) of a 384-well plate. The next day, each test compound was diluted in PBS and 10 μL was added to start stimulation. The cells were cultured for 24 h under conditions at 37° C. and 5% CO2, and then centrifuged to collect the supernatant. Next, 6 μL of the collected supernatant was added to a white 384-well plate, and 15 μL of QUANTI-Luc (InvivoGen) solution was added thereto. After well mixing, the luminescence was measured using a plate reader (PerkinElmer, MA, US).

[2] = tested on: CT26.WT-hTROP2 cells subcutaneously transplanted in BALB/c mouse; experiment: Anti-tumor test (1); type: in vivo
Experimental: CT26.WT (CRL2638), a mouse colon cancer cell line purchased from American Type Culture Collection, was transduced with the human TROP2 gene (NP_002344.2) to establish CT26.WT-hTROP2 cells. In detail, a pQCIXN vector (Takara Bio) was digested with BamHI and Eco RI and then treated with T4 DNA polymerase, so that the resulting cleaved ends were blunted. Next, a pQCIXN-DEN vector was prepared by ligation with Gateway reading frame cassette A. The human TROP2 was inserted into the vector using the Gateway system (Thermo Fisher Scientific). […] Then, the supernatant was collected, and the CT26.WT was infected therewith. The cells were maintained in medium supplemented with 250 μg/mL geneticin (Thermo Fisher Scientific).
(§1) Each antibody or antibody-CDN conjugate was diluted in acetate buffer (10 mM acetate buffer, 5% sorbitol, pH 5.5) (NACALAI TESQUE, INC.).
CT26.WT-hTROP2 cells were suspended in saline. Next, 2.0×10^6 cells were transplanted subcutaneously into the right axillary region of each BALB/c mouse (Day 0), and random grouping was conducted after 7 days. […] In addition, the vehicle group was provided in which acetate buffer was administered. The number of mice in each group was 8.

[3] = tested on: Caki-1 (HTB-46) cells subcutaneously transplanted in BALB/c-nu mouse; experiment: Anti-tumor test (3); type: in vivo, human; settings: 1.5 mg/kg into the tail vein once on Day 13, FIG. 22
Experimental: as §1
Caki-1 (HTB-46) cells, a human renal cancer cell line purchased from American Type Culture Collection, were suspended in Matrigel (CORNING) diluted 50% in saline. Next, 2.5×10^6 cells were transplanted subcutaneously into the right axillary region of each BALB/c-nu mouse (Day 0), and random grouping was conducted after 13 days. The anti-CD70 antibody 1, the anti-CD70 antibody 1-CDN conjugate (1), the anti-CD70 antibody 2, or the anti-CD70 antibody 2-CDN conjugate (1) was administered at a dose of 1.5 mg/kg into the tail vein once on Day 13. In addition, the vehicle group was provided in which acetate buffer was administered. The number of mice in each group was 8.

[4] = tested on: mouse bone marrow-derived dendritic cells; experiment: Co-culture assay with CT26.WT or CT26.WT-hCD70 cell line and mouse bone marrow-derived dendritic cells; type: cell-based; settings: conditions DC, 20 h incubation, FIG. 12
Text: CT26.WT (CRL2638), a mouse colon cancer cell line purchased from American Type Culture Collection, was transduced with human CD70 gene (NP_001243) to establish CT26.WT-hCD70 cells. Specifically, a pLVSIN lentiviral vector (Takara Bio), in which the human CD70 gene was inserted, was constructed. Next, Lenti-X293T cell line (Takara Bio) was transfected with the vector using a Lentiviral High Titer Packaging Mix (Takara Bio). Then, the supernatant was collected, and the CT26.WT was infected therewith. The cells were maintained in medium supplemented with 10 μg/mL puromycin (Thermo Fisher Scientific).
Mouse bone marrow cells were collected from the femur of 5-week-old female BALB/c mice (BALB/cAnNCrlCrlj) (Charles River, Japan). The mouse bone marrow cells were cultured in the presence of […] murine GM-CSF (PEPROTECH) for 7 days to obtain mouse bone marrow-derived dendritic cells. 1.5×10^5 CT26.WT or CT26.WT-hCD70 cell line cells and 1×10^5 mouse bone marrow-derived dendritic cells were seeded per well of a 96-well plate. Each test compound was diluted in RPMI medium (Invitrogen), and 200 μL was added. […] The cells were washed with FCM buffer again and analyzed using a Fortessa (BD Biosciences). MFI of CD86 in CD45^+, CD11c^+, and I-A/I-E^+ fraction was calculated. Then, the ratio with respect to the test compound-free group was calculated. […]

Molecule	luminescence count (IFIT1 promoter reporter) [1]	tumor growth (tumor volume) ([2]; 3.0 mg/kg into the tail vein once on Day 7, FIG. 14)	tumor growth (tumor volume) ([2]; 30 g/animal (equivalent to 1.5 mg/kg) into the tail vein once on Day 7, FIG. 13)	tumor growth (tumor volume) [3]	CD86 expression on mouse dendritic cells (ratio of MFI with respect to the compound-free group) [4]
anti-TROP2 antibody 2: created by introducing LALA mutation into the anti-TROP2 antibody 1; light chain SEQ ID NO: 7, heavy chain SEQ ID NO: 8 (antibody, listed as Homo sapiens) heavy: QVQLVQSGAEVKKPGASVKVSCKASGYTFTTAGMQWVRQAPGQGLEWMGWINTHSGVPKYAEDFKGRVTISADTSTSTAYLQLSSLKSEDTAVYYCARSGFGSSYWYFDVWGQGTLVTVSSASTKGPSVFPLAPSSKSTSGGTAALGCLVKDYFPEPVTVSWNSGALTSGVHTFPAVLQSSGLYSLSSVVTVPSSSLGTQTYICNVNHKPSNTKVDKRV[omitted - human IgG1 Fc with changes] light: DIQMTQSPSSLSASVGDRVTITCKASQDVSTAVAWYQQKPGKAPKLLIYSASYRYTGVPSRFSGSGSGTDFTLTISSLQPEDFAVYYCQQHYITPLTFGQGTKLEIKRTVAAPSVFIFPPSDEQLKSGTASVVCLLNNFYPREAKVQWKVDNALQSGNSQESVTEQDSKDSTYSLSSTLTLSKADYEKHKVYACEVTHQGLSSPVTKSFNRGEC	did not cause an increase in the luminescence count	tumor growth progressed	–	–	–
anti-TROP2 antibody 1: IgG1 isotype, produced with reference to WO2015/098099; light chain SEQ ID NO: 5, heavy chain SEQ ID NO: 6 (antibody, listed as Homo sapiens) heavy: QVQLVQSGAEVKKPGASVKVSCKASGYTFTTAGMQWVRQAPGQGLEWMGWINTHSGVPKYAEDFKGRVTISADTSTSTAYLQLSSLKSEDTAVYYCARSGFGSSYWYFDVWGQGTLVTVSSASTKGPSVFPLAPSSKSTSGGTAALGCLVKDYFPEPVTVSWNSGALTSGVHTFPAVLQSSGLYSLSSVVTVPSSSLGTQTYICNVNHKPSNTKVDKRV[omitted - human IgG1 Fc] light: DIQMTQSPSSLSASVGDRVTITCKASQDVSTAVAWYQQKPGKAPKLLIYSASYRYTGVPSRFSGSGSGTDFTLTISSLQPEDFAVYYCQQHYITPLTFGQGTKLEIKRTVAAPSVFIFPPSDEQLKSGTASVVCLLNNFYPREAKVQWKVDNALQSGNSQESVTEQDSKDSTYSLSSTLTLSKADYEKHKVYACEVTHQGLSSPVTKSFNRGEC	–	–	Tumor growth progressed	–	–
anti-CD70 antibody 1: IgG1 isotype with LALA mutation, produced with reference to WO2004/073656; light chain SEQ ID NO: 1, heavy chain SEQ ID NO: 2 (antibody, listed as Homo sapiens) heavy: QVQLVQSGAEVKKPGASVKVSCKASGYTFTNYGMNWVRQAPGQGLKWMGWINTYTGEPTYADAFKGRVTMTRDTSISTAYMELSRLRSDDTAVYYCARDYGDYGMDYWGQGTTVTVSSASTKGPSVFPLAPSSKSTSGGTAALGCLVKDYFPEPVTVSWNSGALTSGVHTFPAVLQSSGLYSLSSVVTVPSSSLGTQTYICNVNHKPSNTKVDKRV[omitted - human IgG1 Fc with changes] light: DIVMTQSPDSLAVSLGERATINCRASKSVSTSGYSFMHWYQQKPGQPPKLLIYLASNLESGVPDRFSGSGSGTDFTLTISSLQAEDVAVYYCQHSREVPWTFGQGTKVEIKRTVAAPSVFIFPPSDEQLKSGTASVVCLLNNFYPREAKVQWKVDNALQSGNSQESVTEQDSKDSTYSLSSTLTLSKADYEKHKVYACEVTHQGLSSPVTKSFNRGEC	–	–	–	Tumor growth progressed	Neither the anti-CD70 antibody 1 nor the anti-CD70 antibody 2 upregulated CD86 expression in any condition
anti-CD70 antibody 1-CDN conjugate (1) (conjugate) heavy: QVQLVQSGAEVKKPGASVKVSCKASGYTFTNYGMNWVRQAPGQGLKWMGWINTYTGEPTYADAFKGRVTMTRDTSISTAYMELSRLRSDDTAVYYCARDYGDYGMDYWGQGTTVTVSSASTKGPSVFPLAPSSKSTSGGTAALGCLVKDYFPEPVTVSWNSGALTSGVHTFPAVLQSSGLYSLSSVVTVPSSSLGTQTYICNVNHKPSNTKVDKRV[omitted - human IgG1 Fc with changes] light: DIVMTQSPDSLAVSLGERATINCRASKSVSTSGYSFMHWYQQKPGQPPKLLIYLASNLESGVPDRFSGSGSGTDFTLTISSLQAEDVAVYYCQHSREVPWTFGQGTKVEIKRTVAAPSVFIFPPSDEQLKSGTASVVCLLNNFYPREAKVQWKVDNALQSGNSQESVTEQDSKDSTYSLSSTLTLSKADYEKHKVYACEVTHQGLSSPVTKSFNRGEC	–	–	–	tumor growth was markedly inhibited	enhanced the expression of CD86 on mouse dendritic cells only when mouse bone marrow-derived dendritic cells were cultured with CT26.WT-hCD70
